Screen size: about 44,000 compounds; about 340 (0.77%) were called active. Roughly 5% stayed inconclusive and do not appear here. Calls follow the shape of the dose curve; as a rule, active = well fitted inhibition curve with a large enough effect; inconclusive = small, poorly fitted or top-dose-only effect; inactive = flat fitted curve, though single readings scatter. Some of the results follow.
Assay: Acumen qHTS Assay for Inhibitors of the mTORC1 Signaling Pathway in MEF (Tsc2-/-, p53-/-) Cells: Sytravon;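 also: plate controls were DMSO for no effect and rapamycin for full effect; nearly all actives have a fitted effect of over 50% in size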
Settings: phospho-rpS6 immunofluorescence/PI, 24 h; series mostly up to 38.3 µM; activity change, negative = inhibition: at the top concentration
Method in brief: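 Cell-based qHTS: Tsc2-/- p53-/- MEF, 24 h cpd, 37 °C; fix/perm, anti-phospho-S6 Alexa-488 + PI; Acumen 488 nm scan; pS6/PI ratio, % positive cells; rapamycin 7.5 nM = inhibition ref; PI count = viability.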

Activity change, negative = inhibition, inactive:
CCn1cc(S(=O)(=O)c2cccc(C)c2)c(=O)c2cc(F)c(N3CCN(c4ccccc4)CC3)cc21 3.29%, Cc1ccc2[nH]c3c(=O)n(CC(=O)NCCc4ccc(Cl)cc4)ncc3c2c1 3.64%, COc1ccc(NC(=O)C2CCN(c3cnccn3)CC2)cc1Cl 1.49%, CCc1ccc(-n2nc(CO)c(C(=O)NCC(c3ccccc3)c3ccccc3)n2)cc1 1.63%, Cc1ccc(N(Cc2cc3ccccc3[nH]c2=O)C(=O)c2cccc(Cl)c2)cc1 6.51%, CCN(CC)CCCNC(=O)CSc1nc2nc(C)c(Cc3c(F)cccc3Cl)c(C)n2n1 0%, Cc1ccc(-c2cn3c(n2)sc2cc(C(=O)NCc4cccs4)ccc23)c(C)c1 -10.1%, COc1ccc(OCC2c3cc(OC)c(OC)cc3CCN2C(=O)COc2ccc(Cl)cc2Cl)cc1 (stereo unspecified) 14.7%, COc1ccc(Cn2ccc3nc(C)c(C(=O)N4CCN(c5ccccc5OC)CC4)cc3c2=O)cc1 -0.644%, CC(C)NC(=O)C(c1ccccc1)N1Cc2ccccc2C1=O (stereo unspecified) 0%, CC(C)c1ccc2occ(CC(=O)Nc3ccccc3Cl)c2c1 -4.09%, Cc1ccc(C)c(NC(=O)Cn2c(=O)n(Cc3ccc4c(c3)OCO4)c(=O)c3oc4ccccc4c32)c1 2.32%, CC1=C(C(N)=O)C(c2cccc(C)c2)n2nc(-c3cccc(C)c3)nc2N1 (stereo unspecified) -7.29%, COc1ccc(-c2noc(CSc3nc(C)cc(=O)[nH]3)n2)cc1OC -15.7%, Cc1ccc(CSc2nnc(-n3c(=O)c(C#N)cc4c(=O)n5cc(C)ccc5nc43)s2)cc1 -0.53%, CCOC(=O)C1CCN(S(=O)(=O)c2ccc(N3CCCCS3(=O)=O)cc2)CC1 2.05%, CCn1c(SCc2ccc(F)cc2Cl)nc(=O)c2c(C(=O)OC)cc(C3CC3)nc21 -3.44%, CC(C)C1N=C2c3ccccc3N=C(SCC(=O)NCc3ccccc3Cl)N2C1=O (stereo unspecified) 6.42%, Cc1ccc(CNC(=O)c2cc(-c3ccc(C)cc3)nc3n[nH]c(-c4ccc(F)cc4)c23)cc1 0.362%, CCCn1c(=O)c2sccc2n2c(CCCC(=O)Nc3ccc(Oc4ccccc4)cc3)nnc12 -0.219%, COc1ccc(OC)c(CNC(=O)c2c(C)oc3ncn(C)c(=O)c23)c1 5.05%, O=C(c1ccc2c(c1)CCN2S(=O)(=O)c1ccc(Cl)cc1)N1CCN(c2ccccc2)CC1 1.89%, CCOc1ccc(CN2C(=O)c3ccccc3Sc3ccc(C(=O)OC)cc32)cc1 8.88%, CC(=O)Nc1ccc(S(=O)(=O)NCc2cccn2Cc2cccc(C)c2)cc1 0%, COc1ccc(CNC(=O)c2ccc3c(c2)N(Cc2ccccc2C)C(=O)c2ccccc2S3=O)cc1 (stereo unspecified) 3.74%, O=C(NCc1ccc(F)cc1)C1CCN(c2ncnc3c2nc2n3CCCCC2)CC1 1.34%

From PubChem BioAssay AID493208 (National Center for Advancing Translational Sciences (NCATS), 2011)
